The text below walks through data of article PMC10009644, “Gene-repressing epigenetic reader EED unexpectedly enhances cyclinD1 gene activation” (Molecular Therapy. Nucleic Acids, 2023).

This assay deals with T1, FLAG-tagged full-length EED (UniProt O75530 1-441).
T1 construct: EED, full-length, including the N terminus (NT, residues 1-80) and seven WD repeats; also called FLAG-EED; Lenti-FLAG-EED; source: HEK293 cells (HEK293A in the legend), transfected, in lysate
Kind of assay: co-IP; HEK293 cells transfected with HA- and FLAG-tagged constructs; lysed in Pierce IP Lysis Buffer; IP with anti-FLAG (anti-DYKDDDDK magnetic agarose, 4°C overnight) or anti-HA antibody, washed 3x with cold PBS, immunoblot for the other tag. To be noted: partners not purified. On the technique in general: Immunoblotting shows a protein as a band on a membrane.

T1 sequence (O75530 whole entry, the tested form may be a part): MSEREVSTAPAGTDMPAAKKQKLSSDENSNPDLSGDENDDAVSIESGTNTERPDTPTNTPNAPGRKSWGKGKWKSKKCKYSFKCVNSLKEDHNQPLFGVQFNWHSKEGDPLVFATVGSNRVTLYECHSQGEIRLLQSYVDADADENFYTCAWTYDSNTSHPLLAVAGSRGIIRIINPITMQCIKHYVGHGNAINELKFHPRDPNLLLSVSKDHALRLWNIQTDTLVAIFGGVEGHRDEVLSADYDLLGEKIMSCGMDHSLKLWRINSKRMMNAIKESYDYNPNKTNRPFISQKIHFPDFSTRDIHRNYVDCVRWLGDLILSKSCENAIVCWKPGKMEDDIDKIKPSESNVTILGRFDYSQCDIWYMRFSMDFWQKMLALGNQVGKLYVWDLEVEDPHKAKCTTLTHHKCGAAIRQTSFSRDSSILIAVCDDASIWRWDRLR

B1: HA-tagged STAT3 (signal transducer and activator of transcription 3) (natural protein)
chain: not shown
notes: The plasmid is named Lenti-HA-STAT3-GFP; also called HA-STAT3; Lenti-HA-STAT3-GFP; source: HEK293 cells, transfected, in lysate
Consider B1, for which the “fold over background control (coIP)” value is 30 fold.
